According to PubChem BioAssay AID1634 (National Center for Advancing Translational Sciences (NCATS), 2009):
Among all 260,000 compounds or so, about 150 (0.058%) were called active. Inconclusive results, whose numbers are uncertain, are shown with a selection of clear calls. Calls come from the whole dose curve; as a rule, active = well fitted inhibition curve with a large enough effect; inconclusive = small, poorly fitted or top-dose-only effect; inactive = no such curve, though single readings can be large or run the other way. Potencies of inconclusive entries are left out as doubtful fits.

target: Pyruvate kinase PKM (Homo sapiens) (UniProt P14618); assay: qHTS Assay for Inhibitors of Human Muscle isoform 2 Pyruvate Kinase; settings: purified PKM2, ATP generation, Kinase-Glo luminescence; series mostly up to 57.5 µM; note: nearly all actives have a fitted effect of over 60% in size
Method in brief: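 Coupled luciferase luminescence (Kinase-Glo) detects ATP generated from 0.1 mM ADP and 0.5 mM PEP in imidazole buffer pH 7.2 with KCl, MgCl2; 1 h at room temperature. Enzyme at intermediate activity; normalized to uninhibited and no-enzyme controls.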
Potency is the fitted concentration of half-maximal effect; tags give direction and shape of the fitted curve.

UniProt P14618, sequence (P14618 whole entry, looked up, canonical isoform): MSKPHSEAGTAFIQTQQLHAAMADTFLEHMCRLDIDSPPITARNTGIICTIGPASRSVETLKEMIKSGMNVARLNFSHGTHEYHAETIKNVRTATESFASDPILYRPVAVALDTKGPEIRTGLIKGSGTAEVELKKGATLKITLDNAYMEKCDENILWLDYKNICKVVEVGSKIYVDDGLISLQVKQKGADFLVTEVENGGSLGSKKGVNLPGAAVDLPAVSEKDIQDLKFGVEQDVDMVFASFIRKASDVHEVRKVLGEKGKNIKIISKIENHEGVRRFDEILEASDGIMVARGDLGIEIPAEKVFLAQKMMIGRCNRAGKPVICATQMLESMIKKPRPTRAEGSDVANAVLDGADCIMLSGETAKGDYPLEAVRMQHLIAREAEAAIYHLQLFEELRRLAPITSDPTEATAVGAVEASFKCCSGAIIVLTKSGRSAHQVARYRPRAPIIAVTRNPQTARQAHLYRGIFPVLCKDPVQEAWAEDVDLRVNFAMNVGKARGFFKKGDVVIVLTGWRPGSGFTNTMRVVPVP

| Compound | Potency |
| --- | --- |
| Cc1ccc(S(=O)(=O)NCC2CCC(C(=O)NCc3cccnc3)CC2)cc1 (centres undefined) | inconclusive [falling, single point] |
| Cc1[nH]c2ccccc2c1SCc1ccccc1 | inconclusive [falling, single point] |
| CC(=O)N1N=C(c2ccc(C)cc2)CC1c1ccc2c(c1)OCO2 (centres undefined) | inactive |
| CC1=C(C(=O)OCc2ccc3c(c2)OCO3)C(c2ccc(O)c([N+](=O)[O-])c2)NC(=O)N1 (centres undefined) | inconclusive [falling, single point] |
| N/C(=N\OC(=O)c1cccs1)c1ccccc1 | inconclusive [falling, partial curve, poor fit] |
| O=C(N=Nc1c(O)[nH]c2ccccc12)c1ccco1 | inconclusive [falling, single point] |
| CCOc1ccc(OCc2cccc(C(=O)O)c2)cc1 | inconclusive [falling, partial curve] |
| CCOc1ccc(-c2nc3scc(-c4cccs4)c3c(=O)[nH]2)cc1 | inconclusive [falling, single point] |
| Cc1cccc(N/C=C/C(=O)c2cccs2)c1C | inconclusive [falling, partial curve, poor fit] |
| NS(=O)(=O)c1cccc(NC(=S)NCc2ccccc2)c1 | inconclusive [falling, single point] |
| Cc1cc(C(=O)N/N=C/c2ccc(N3CCOCC3)cc2)c(C)o1 | inconclusive [falling, single point] |
| Cc1cc(F)ccc1S(=O)(=O)Nc1ccccc1C(=O)NCc1cccnc1 | inconclusive [falling, single point] |
| Cc1cc(O)c(-c2cc(O)c(C)cc2O)cc1O | inconclusive [falling, single point] |
| O=C1c2ccccc2-c2nnc(-c3ccc(O)cc3)cc21 | inconclusive [falling, partial curve] |
| O=C(OCCOc1cccc(Cl)c1)c1ccc2ncsc2c1 | inactive |
| COC(=O)c1cnc(N2CCCN(S(=O)(=O)c3ccc(C(F)(F)F)cc3)CC2)nc1C(F)(F)F | inconclusive [falling, single point] |
| COc1ccc(C(=O)N2CCC(n3c(C)nc4cc(F)ccc43)CC2)cc1 | inactive |
| O=C1N/C(=C/c2ccco2)C(=O)N1Cc1ccccc1F | inactive |
| COc1ccccc1-c1nc(-c2ccccn2)no1 | active: 7.94 µM |
| CCNC(=O)CSc1nnc(-c2cccc(S(=O)(=O)N(CC)CC)c2)n1CCc1ccccc1 | inconclusive [falling, single point] |
| CC1CCc2sc(-c3n[nH]c(=S)o3)cc2C1 (centres undefined) | inconclusive [falling, single point] |
| Cc1ccsc1/C=N/N=C/c1sccc1C | inconclusive [falling, single point] |
| O=C(O)c1cc(S(=O)(=O)Nc2ccc(OCc3ccccc3)cc2)ccc1Br | inconclusive [falling, partial curve] |
| CCCCN1/C(=C/c2ccc3ccccc3[n+]2CC)Sc2ccccc21 | inconclusive [falling, full curve] |
| Cc1cc(NC(=O)c2ccco2)ccc1NC(=O)c1ccco1 | active: 14.1 µM |

| Compound | Potency |
| --- | --- |
| O=S(=O)(Nc1ccc2ccccc2n1)c1ccccc1Cl | inactive |
| O=S(=O)(NNc1ccc(Cl)nn1)c1ccc(F)cc1 | inconclusive [falling, partial curve] |
| CC1=NN(c2ccccc2)C(=O)/C1=C/C=C/C=C/N(C)C | inconclusive [falling, partial curve] |
| COC(=O)Cc1[nH]n(-c2nc3ccccc3s2)c(=O)c1C(C)=O | inconclusive [falling, single point] |
| CC(C)(C)C1CCc2c(sc3nc(SCC(=O)O)nc(N)c23)C1 (centres undefined) | inconclusive [falling, partial curve] |
| CN(CC1CCCO1)S(=O)(=O)c1ccc(C(=O)Nc2nc3cc4c(cc3s2)OCO4)cc1 (centres undefined) | inconclusive [falling, single point] |
| O=C(Cn1nc(CNc2ccc(Cl)cc2)[n+]2c1CCCCC2)c1ccc(Cl)cc1 | inactive |
| Cc1cc(C)n(C(=O)c2cc3c(s2)CCCC3)n1 | inactive |
| CCC(O)CC(C(=O)NNc1ccccc1)C(=O)NNc1ccccc1 (centres undefined) | inconclusive [falling, single point] |
| COc1cccc(C(=O)/C=C2\Sc3ccccc3N2C)c1 | inconclusive [falling, full curve] |
| COc1cccc(-n2nnc3c(=O)n(CC(=O)Nc4cc(C)on4)cnc32)c1 | inactive |
| CC/C(=N\NC(=O)OC)c1ccc(OC(F)F)cc1 | inconclusive [falling, single point] |
| Cc1cccn2cc(-c3ccc(Cl)cc3)nc12 | inconclusive [falling, single point] |
| Cc1ccc(C2=C/C(=C/c3cccnc3)C(=O)O2)c(C)c1 | inactive |
| CC(=O)c1c(C)nc(-c2ccc(Cl)cc2)nc1N | inconclusive [falling, single point] |
| O=C(CC(c1ccc(F)cc1)c1ccco1)Nc1nccs1 (centres undefined) | inactive |
| Fc1ccc(-n2nnc(-c3nccs3)n2)cc1 | inconclusive [falling, single point] |
| O=C(NCCN1C(=O)S/C(=C\c2cccnc2)C1=O)C1=NN(c2ccccc2)C(=O)CC1 | inactive |
| OC(C#Cc1ccccn1)c1cccs1 (centres undefined) | inactive |
| CC(C)(C)c1nnc(NC(=S)Nc2ccccc2)s1 | inconclusive [falling, single point] |
| O=C1c2cccnc2C(Nc2ccccc2Br)N1Cc1ccco1 (centres undefined) | inactive |
| O=C(O)CSCC(=O)Nc1ccc(-c2nc3ccccc3s2)cc1 | inconclusive [falling, single point] |
| COc1ccc2nc(N3C(=O)CNC3=S)sc2c1 | inconclusive [falling, full curve, poor fit] |
| COCCN=C1Sc2nc3c(C)cccc3cc2CN1Cc1ccco1 | inactive |
| O=C(CN1CCCC1)Nc1cc(F)ccc1F | inconclusive [falling, single point] |

| Compound | Potency |
| --- | --- |
| Cc1ccc(S(=O)(=O)N(C)CC(=O)N/N=C/c2ccc(C)o2)cc1 | inactive |
| CC(C)C(=O)Nc1cccc(-c2nc3ncccc3o2)c1 | inconclusive [falling, single point] |
| Cc1cc(C)nc(SCc2cc(=O)c(OC(=O)c3ccc(S(=O)(=O)N4CCCC4)cc3)co2)n1 | inactive |
| Cn1cccc1/C=N/N1CCN(Cc2cccc3ccccc23)CC1 | inactive |
| O=C(NC1CC1)C1=C[C@@H](c2csc3ccccc23)C[C@@H](OCc2ccc(CO)cc2)O1 | inactive |
| COc1cccc(C(=O)Nc2nc3ccccc3[nH]2)c1 | inconclusive [falling, partial curve] |
| Cc1ccc(NS(=O)(=O)c2cc3c4c(cccc4c2)C(=O)NC3=O)cc1C | inactive |
| COc1cccc(-c2noc(CCC(=O)Nc3cccnc3)n2)c1 | inactive |
| COc1cccc(C(=O)Nc2ccc(NC(=O)C3CC3)cn2)c1 | inconclusive [falling, single point] |
| Cc1cc(CNC(=O)c2ccc(C)c([N+](=O)[O-])c2)c2ccccc2n1 | inconclusive [falling, single point] |
| O=C(N/N=C/c1ccc2c(c1)OCO2)c1cccs1 | inconclusive [falling, partial curve] |
| Cc1ccc(-c2csc(NC(=O)/C=C/c3ccco3)c2C(=O)O)cc1 | inactive |
| Cc1n[nH]c(=O)nc1N/N=C/c1ccc(O)c([N+](=O)[O-])c1 | inconclusive [falling, single point] |
| O=C(Nc1ccc(-c2nc3ccccc3[nH]2)cc1)C1CCCO1 (centres undefined) | inconclusive [falling, partial curve] |
| Cc1ccccc1-n1ncc(C(C)NC(=O)c2ccccc2)c1C (centres undefined) | inconclusive [falling, single point] |
| Cc1snc(SCC(=O)c2ccc([N+](=O)[O-])cc2)c1C#N | inconclusive [falling, single point] |
| CCc1ccccc1NC(=O)NC1CC2CCC(C1)N2Cc1ccco1 (centres undefined) | inconclusive [falling, single point] |
| Cc1cc(C)c2c(=O)n(CC(=O)NCCCN3CCOCC3)sc2n1 | inconclusive [falling, single point] |
| Cc1cc(NC(=O)c2ccccc2)ncc1NC(=O)c1cccs1 | inconclusive [falling, partial curve, poor fit] |
| CCCCN(CC)CCCNC(=O)CN1C(=O)CSc2ccc(S(=O)(=O)N3CCOCC3)cc21 | inactive |
| COc1ccc(C(=O)Nc2ccc(CN3CCS(=O)(=O)CC3)cc2)cc1 | inconclusive [falling, partial curve] |
| CCn1cnc2scc(-c3ccc(C)c(C)c3)c2c1=O | inconclusive [falling, single point] |
| COc1cccc(CC2(CO)CCCN(Cc3c(C)cc(C)cc3-n3cccn3)C2)c1 (centres undefined) | inconclusive [falling, full curve, poor fit] |
| Clc1ccccc1/C=C/c1nc(-c2ccccn2)no1 | inconclusive [falling, partial curve] |
